Results on 167 variants are retold here after the RNAGym collection of RNA variant scans (doi:10.7554/elife.90254).

B1: OR4K15 (parent)
chain: GUUAACGGUCAUAGGCCAUGGAAACUAGGAGCACCAUUUCGCUGCCAGUGAAGAAAUGAACAAAGAAAAUCUGGGCCAGGCAGGCAUCAAAAGAAAUAGUCUUGCGCUCAACCAGAAAGUCUGUAAUCAUUUUAAGGGUA

Read counts are not given, so values of variants with three or more changes are uncertain.

This data set covers variants of B1. In words: self-cleavage, relative activity (ratio to wild type); higher = more cleavage; in vitro, sequencing; the parent is a self-cleaving ribozyme.
As for U9C G28A A30U A56G, the self-cleavage amounted to 1.95. Consider A11G G75A A126U, for which the self-cleavage is 0.14. U9C G20A A47G A110G: the self-cleavage turned out to be 0.05. As for C10U U39A A67G, the self-cleavage turned out to be 1.02. The result for U9C U57C A86G reads 1.22; that for A11G A69U U87C, 1.23.

In the case of C10U U87A A92G U120C, the self-cleavage amounted to 0.5. For U9C A91G U122C, the self-cleavage came to 1.08. U9C A56G A60G A69G: the self-cleavage amounted to 0.61. In the case of U9C U100C A117G, the self-cleavage is 0.24. A11G A36U A54G: the self-cleavage amounted to 0.9. Turning to C10U U43A A62U, the self-cleavage was found to be 0.99.

For the variant A11G A69G A111U A117G U122C, the self-cleavage is 0.05.

With A11G A56G U100A A116G A126G, the self-cleavage was found to be 0.11. Regarding U9C U97C A116G, the self-cleavage turned out to be 0.44.

U9C A96U U97C: the self-cleavage came out at 1.91. Take U9C U39C A66G G106U: the self-cleavage came out at 0.02. For the variant U9C U12A A69U, the self-cleavage came to 1.27. The result for U9C U12C A22G A24G A78G U103C reads 0; that for U9C U19C A47G A94G A116G A125G U127A, 0.23; that for A11G A13G G84U, 1.47.

For the variant U9C U12G A64G A90G A125U A126G, the self-cleavage amounted to 1.14.

As to U9C A63G A118G G136U, the self-cleavage came out at 1.22.

Regarding U9G A90G A91G A116G U122C, the self-cleavage was 0.04. Turning to U9C A60G U130C, the self-cleavage worked out at 0.72.

As for A11G A54G A67G, the self-cleavage was 1.55. With A11G A13G A24U A30G, the self-cleavage was determined as 0.71. As for A11G A23U C32U U57C A114U, the self-cleavage is 0.05. In the case of A11G A23G U87A C105U, the self-cleavage was 0.14.

Regarding U9G U26C G28A, the self-cleavage was found to be 1.15.

On to C10U U49C U57A, for which the self-cleavage was 0.95. Turning to C10U U19C A55G A78G G106A A116G, the self-cleavage was determined as 0.02. Consider A11G A30G A69G U100C, for which the self-cleavage came out at 1.13. With A11G A22G U130C U132G, the self-cleavage came to 0.74. The result for A11G G14A A67G A94G A117G reads 0.68; that for U9C U103C U133G G138A, 1.02; that for U9C U19C A52G A69U A82G A90G U102C, 0.49. For U9C C46U A95G A116U, the self-cleavage stood at 0.51.

With U9C A95G U100C, the self-cleavage came to 2.21. The result for A11G A78G A89G A94G A96G reads 0.11. Take U9C A66G U108A U122A: the self-cleavage came out at 0.03. Consider A11G A13G A62G A117G, for which the self-cleavage turned out to be 1.38. Regarding U9C A111G U120G, the self-cleavage stood at 0.04. The result for U9G U37A U49C U131C U139C reads 0.29. On to U9C U108C A111G, for which the self-cleavage is 0.02. Regarding C10A A27G A117G, the self-cleavage amounted to 0.89.

Turning to U9C A110G A111G, the self-cleavage was 0.02. Regarding U9C A129U A135G, the self-cleavage worked out at 2.02. U9C U39C U97A: the self-cleavage is 2.65. For the variant A11G A60G A94G U108C, the self-cleavage worked out at 0. A11G G20U U120C: the self-cleavage was 0.63.

Consider A11G A30U A55G, for which the self-cleavage came out at 0.11. The result for A11C C32U A129U reads 0.76; that for A11G A30G U57C A126U, 0.94; that for U9C U39A U57C, 0.81.

For the variant A11C U37C A78G, the self-cleavage was 0.23. Turning to U9C U49C U133C, the self-cleavage is 2.09. Consider A11G A94G A96G U130A, for which the self-cleavage is 0.42. The result for U9C U19C A33U reads 1.39; that for A11G A51U C61U A67G U131C, 0.99. As for U9C U38A G79A A126G, the self-cleavage amounted to 0.12. Consider A11G A47U A114G A129U, for which the self-cleavage came out at 0.07. With A11G A64G U122C, the self-cleavage is 0.63. With A11G C88A A96G A140U, the self-cleavage worked out at 1.41. The result for U9C A59G A82G A94G reads 0.77; that for A11G A52G A92G A114U, 0.04. In the case of A11G A56G U103A, the self-cleavage is 0.59.

With U9C G44A U49C, the self-cleavage was determined as 0.96. The result for C10U A51G A111G reads 0; that for A11G A95G U139A, 2.15; that for U9C U43C A59C U131C A140C, 0.55. Regarding A11G U19C A23G A33G A52U, the self-cleavage came out at 0.73. As to U9C A62G A68G, the self-cleavage was found to be 1.24. With A11G A27G G58A, the self-cleavage was determined as 0.76. Regarding A11G A23U C45U A60G U124A, the self-cleavage is 0.82. A11G A116G U122C: the self-cleavage came to 0.17.

As to U9C A56G A134C, the self-cleavage turned out to be 1.52.

Take U9G G84A A110G A129G: the self-cleavage was found to be 0.09. As for U9C U49C A67G A68G, the self-cleavage is 1.34. Regarding C10U A30G G75A A95G A135C, the self-cleavage worked out at 0.05. Consider A11G A27U A56G A135G, for which the self-cleavage turned out to be 1.11. For U9C U37C A63G U132C, the self-cleavage is 2.62. On to A11G A69G A116U, for which the self-cleavage worked out at 0.24.

With C10A U43A A59G, the self-cleavage was 0.63. Turning to U9G A69G A116G, the self-cleavage came to 0.29. As to U9C U49C A62G U97C A125G, the self-cleavage was 0.31.

Turning to U9C G15C U39C A63U, the self-cleavage worked out at 1.77. On to U9C A60G A86U U108A A126G, for which the self-cleavage stood at 0.01.

Regarding U9G A86U U122C, the self-cleavage amounted to 1.04. Regarding A11G A47C A52G A59G, the self-cleavage was 0.39. Take U9C A56G U102C: the self-cleavage amounted to 1.27. Turning to U9G A33G A54U A135G, the self-cleavage worked out at 0.68. A11G A56U A91U U132C: the self-cleavage stood at 1.02. As to U9C U38C U43C A55G, the self-cleavage came to 0.94.

Regarding A11G A22G A36G A66G A92G, the self-cleavage is 1.67. Consider U9C U43A U57A A78G A89G A95G, for which the self-cleavage came to 0.37. Turning to U9C A117U A126G, the self-cleavage was determined as 0.84. Regarding A11G A52G A59G, the self-cleavage turned out to be 0.87. In the case of U9C A67G A92G, the self-cleavage was found to be 1.48. As to A11C A69G C76G, the self-cleavage came out at 0.18. On to C10U C42U G136A, for which the self-cleavage came to 1.23.

For the variant A11G A33C A118G U122C, the self-cleavage worked out at 0.69. The result for A11G U19C A47U reads 1.38. In the case of A11G A94G U102C, the self-cleavage was determined as 1.8. With C10A G73A U87C C112U A125G A126G, the self-cleavage was found to be 0. In the case of U9C A63G A68G A82G A91G U100C, the self-cleavage was found to be 0.61. In the case of A11G A118G G137U, the self-cleavage came out at 1.02. Turning to U9C A59U A96C, the self-cleavage was 0.83. The result for A11G A62G U72A C85A A111G U120C reads 0.03; that for U9G A27G U70A U87C U102C, 0.44. Take A11G A64G A95G: the self-cleavage was found to be 1.11.

Take A11G A47G A54G A67G: the self-cleavage was 1.81. For the variant C10U U103C A111G U139C, the self-cleavage was found to be 0.01.

Regarding A11G A33G A82G G84A A117G, the self-cleavage is 0.59. Turning to A11C U87C U122C, the self-cleavage is 0.92. The result for U9C A78G U120C reads 0.11; that for A11G A33G A78G A114G A126G U139C, 0.01. Take C10U G28A A30G U49C G50U A111U A116G: the self-cleavage worked out at 0.02. U9C U37C G106U: the self-cleavage amounted to 0.01. As for U9C A62G A94G U108C A114G A126G, the self-cleavage was determined as 0.01. Turning to U9G U87C U102C, the self-cleavage is 1.03. Regarding U9G U43C A59G U72C, the self-cleavage turned out to be 0.15. Regarding A11G A66U A92G U102C, the self-cleavage was determined as 0.79. As to A11G A22U U127C, the self-cleavage came out at 0.92. Consider U9C U38C A55U C71A A96G, for which the self-cleavage came out at 1.03. Take U9C A82G A92G A126G: the self-cleavage amounted to 0.37.

For the variant U9C U37C U102A, the self-cleavage amounted to 1.18.

On to U9C A63G U97C, for which the self-cleavage turned out to be 2.25. On to U9C A64G A82G, for which the self-cleavage is 0.3. Regarding A11C A69G C128U, the self-cleavage turned out to be 1.4. The result for U9C A91G A114G reads 0.46. With A11G A62U U87C, the self-cleavage was 1.2. Turning to U9C C107U U108C, the self-cleavage was determined as 0.04. In the case of A11G A51G A82G A90G C121A, the self-cleavage came to 0.29. For the variant U9G A13G A96G, the self-cleavage is 0.73. For the variant A11G U19C U43A, the self-cleavage amounted to 1.47. Turning to U9C A56C A96G, the self-cleavage worked out at 2.07. Regarding A11G A60G A68G, the self-cleavage was determined as 0.88.

Consider A11G C109U A111G, for which the self-cleavage worked out at 0.02. For U9C A94G U108C U122G, the self-cleavage was found to be 0.01. The result for A11G A51U A66U A68G U130C reads 1.03. Consider U9C U12C A18G U49A A55G A62U U72C U131C, for which the self-cleavage came out at 0.27.

Take A11G A13G A27G U72C: the self-cleavage worked out at 0.27. The result for U9C U39C U87C reads 1.59. Take A11C A18U A59G: the self-cleavage is 2.33. The result for U9C C46U A62G A89G reads 1.59. With C10A A59U A82G A96G, the self-cleavage was 0.23. U9C U102G A116G: the self-cleavage is 1.26. With U9C U57C A67G A114G, the self-cleavage was determined as 0.31. As to U9C U130C U131C, the self-cleavage turned out to be 0.98.

On to A11G A33G A52G A56G U108C A114G G136A, for which the self-cleavage came out at 0.03. For the variant A11G A18G A67G, the self-cleavage was 1.37. For the variant A11G A54G A64G U100C U103A G104A, the self-cleavage is 0.03.

Regarding U9C U127C U130C, the self-cleavage was 0.93. On to C10U A23G A68G C121A, for which the self-cleavage is 1.95. In the case of U9C U39C A116G, the self-cleavage was 1.29. Regarding U9C U26C U37C A47U, the self-cleavage is 0.78. Take U9G A23G U87C A118G: the self-cleavage was determined as 0.33. Take C10U U37C A63G A66G U122C: the self-cleavage turned out to be 0.46. U9C A68G A89G: the self-cleavage was found to be 1.68. The result for A11G G84A A90U reads 1.74; that for U9C U38C A96G, 2.56; that for U9C U12C A68U A94U U108C A111U, 0. Consider U9C U57A A64G U87C A111G, for which the self-cleavage was 0.01.

With A11G C46A U130C, the self-cleavage turned out to be 0.59. The result for U9C G44A A68G A90G reads 0.79; that for A11G G14A A92U A117G, 2.26.
